Hit rate of the full screen: of about 39,000 compounds, about 220 (0.56%) showed activity. Some of the results follow.
test system: Escherichia coli K-12 BW25113; test: relative growth (OD600 normalised to plate interquartile mean) (fraction); higher = less growth inhibition, active = 0.2 or less; conditions: 50 µM; LB; incubation time: overnight (16-24 h)
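Also: static incubation at 37 °C against the wild-type strain, values averaged over two biological replicates.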

Q: Which relative growth does the source give for `O=S(=O)(c1c[nH]c2ncccc12)N1CC(S(=O)(=O)N2CCOCC2)C1` here?
A: inactive: 0.987

Q: How did the relative growth turn out when `COc1ccc(NC(=O)N(C)C[C@@H]2Oc3ccc(NS(=O)(=O)c4c(C)noc4C)cc3CC(=O)N([C@H](C)CO)C[C@H]2C)cc1` was run?
A: inactive: 1.02

Q: For `Cc1noc(C)c1NC(=O)N(C)C[C@@H]1OCCCC[C@H](C)Oc2ccc(NS(=O)(=O)c3ccc(Cl)cc3)cc2C(=O)N([C@@H](C)CO)C[C@@H]1C`, which relative growth is on record?
A: inactive: 0.973

Q: With `Cc1oc(=O)oc1CN1CCN(c2cc3c(cc2F)c(=O)c(C(=O)O)c2n3C(C)S2)CC1` (stereo not drawn) as the compound, how does the relative growth read?
A: active: 0.0438

Q: Which relative growth does the source give for `C#CCN(O[C@@H](/C=C/[C@@H](O)Cc1ccccc1)C1CC1)[C@@H](Cc1ccc(-n2cc(CCC(=O)NO)nn2)cc1)C(=O)OC` here?
A: inactive: 0.995

Q: With `C[C@@H]1CCCCO[C@@H](CN(C)S(=O)(=O)c2ccc(F)cc2)[C@@H](C)CN([C@H](C)CO)C(=O)c2cc(NC(=O)Cc3ccccc3)ccc2O1` as the compound, how does the relative growth read?
A: inactive: 0.998

Q: Which relative growth does the source give for `CCCCCCOc1cccc(N)c1` here?
A: inactive: 0.974

Q: `C[C@@H]1CCCCO[C@@H](CN(C)C(=O)Nc2ccc3c(c2)OCO3)[C@@H](C)CN([C@H](C)CO)C(=O)c2cc(NC(=O)Cc3ccccc3)ccc2O1` was tested. Which relative growth did it give?
A: inactive: 0.972

Q: How did the relative growth turn out when `CC[C@@H](O[Si](C#C[Si](C(C)C)(C(C)C)C(C)C)(C(C)C)C(C)C)c1cn(Cc2cccc(Cl)c2)nn1` was run?
A: inactive: 1.01

Q: Which relative growth does the source give for `COc1ccc(NC(=O)Nc2ccc3c(c2)C(=O)N([C@H](C)CO)C[C@H](C)[C@@H](CN(C)S(=O)(=O)c2ccc(OC)cc2)OCCCC[C@@H](C)O3)cc1` here?
A: inactive: 1.04

Q: For `N#CCNC(=O)Cc1ccccc1`, which relative growth is on record?
A: inactive: 0.984

Q: Which relative growth does the source give for `COCC#Cc1ccc2c(c1)O[C@H](CN(C)C(=O)COC)[C@H](C)CN([C@@H](C)CO)S2(=O)=O` here?
A: inactive: 1.01

Q: For `COc1ccc(cc1)CN1CC[C@]2(CC1)CN([C@@H](CO)c1[nH]c3cc(ccc3c12)OC)C(=O)CN(C)C`, which relative growth is on record?
A: inactive: 0.977

Q: For `CC(COc1ccccc1)N(CCCl)Cc1ccccc1.Cl` (stereo not drawn), which relative growth is on record?
A: inactive: 1.02

Q: How did the relative growth turn out when `CC(C)(CO)Nc1ncnc(N)c1[N+](=O)[O-]` was run?
A: inactive: 0.998

Q: `COc1cccc(NC(=O)N(C)C[C@@H]2Oc3cc(C#Cc4ccncc4)ccc3S(=O)(=O)N([C@H](C)CO)C[C@@H]2C)c1` was tested. Which relative growth did it give?
A: inactive: 0.986

Q: How did the relative growth turn out when `CCC(CC)C(=O)N1c2ccccc2Sc2ccccc21` was run?
A: inactive: 1.01

Q: For `COc1ccc(NC(=O)Nc2ccc3c(c2)C(=O)N([C@H](C)CO)C[C@H](C)[C@H](CN(C)S(=O)(=O)c2cccs2)OCCCC[C@H](C)O3)cc1`, which relative growth is on record?
A: inactive: 1.06

Q: Which relative growth does the source give for `C[C@H](CO)N1C[C@H](C)[C@H](CN(C)C(=O)NC2CCCCC2)OCCCC[C@H](C)Oc2ccc(NS(=O)(=O)c3ccc(F)cc3)cc2C1=O` here?
A: inactive: 0.999

Q: `O=C(C[C@H]1C=C[C@H](NC(=O)CN2CCOCC2)[C@H](CO)O1)NCCc1ccncc1` was tested. Which relative growth did it give?
A: inactive: 0.975

Q: Which relative growth does the source give for `C[C@@H]1CCCCO[C@H](CN(C)Cc2ccc(Cl)c(Cl)c2)[C@@H](C)CN([C@H](C)CO)C(=O)c2cc(NS(=O)(=O)c3cccs3)ccc2O1` here?
A: inactive: 1.01

Q: Which relative growth does the source give for `C[C@@H]1CN([C@H](C)CO)C(=O)c2cc(NS(=O)(=O)c3ccc(Cl)cc3)ccc2O[C@@H]1CN(C)C(=O)Nc1cccc2ccccc12` here?
A: inactive: 1.01

Q: How did the relative growth turn out when `Cc1cc(S(=O)(=O)N2CCCO[C@@H]2CNC(=O)C(=O)NCc2ccncc2)ccc1F` was run?
A: inactive: 0.984

Q: `COc1ccc(NC(=O)N(C)C[C@H]2Oc3ncc(C#C[C@@H](C)O)cc3C(=O)N([C@@H](C)CO)C[C@@H]2C)cc1` was tested. Which relative growth did it give?
A: inactive: 1.01

Q: With `C[C@@H]1CN([C@@H](C)CO)C(=O)c2cc(NC(=O)NC3CCCCC3)ccc2O[C@@H](C)CCCCO[C@@H]1CN(C)Cc1ccccc1` as the compound, how does the relative growth read?
A: inactive: 1.01

Q: With `Cc1noc(C)c1NC(=O)Nc1ccc2c(c1)C(=O)N([C@@H](C)CO)C[C@@H](C)[C@@H](CN(C)C(=O)Nc1cccc3ccccc13)O2` as the compound, how does the relative growth read?
A: inactive: 1.01

Q: Which relative growth does the source give for `Cc1noc(C)c1S(=O)(=O)Nc1ccc2c(c1)CC(=O)N([C@H](C)CO)C[C@@H](C)[C@@H](CN(C)CC1CC1)O2` here?
A: inactive: 0.955

Q: How did the relative growth turn out when `COCCOC(=O)N1C(=O)[C@@]2(c3cc(C#CCCO)ccc31)[C@H](C(=O)NC[C@H](O)c1ccccc1)[C@H]1C(=O)O[C@H](c3ccccc3)[C@H](c3ccccc3)N1[C@@H]2c1ccccc1OCCO` was run?
A: inactive: 0.973

Q: Which relative growth does the source give for `COc1ccc(NC(=O)Nc2ccc3c(c2)C(=O)N([C@H](C)CO)C[C@H](C)[C@@H](CN(C)S(=O)(=O)c2ccc(Cl)cc2)OCCCC[C@@H](C)O3)cc1` here?
A: inactive: 1.03

Q: With `COc1ccc(NC(=O)Nc2ccc3c(c2)C(=O)N([C@@H](C)CO)C[C@H](C)[C@@H](CN(C)CC2CCCCC2)OCCCC[C@H](C)O3)cc1` as the compound, how does the relative growth read?
A: inactive: 0.984

Q: For `C[C@H](CO)N1C[C@H](C)[C@H](CN(C)S(=O)(=O)c2cn(C)cn2)OCc2cn(nn2)CCCC1=O`, which relative growth is on record?
A: inactive: 0.955

Q: `CCCNC(=O)N1C[C@]2(CN(C2)S(=O)(=O)c2ccccc2)c2c(n(c3cc(ccc23)OC)C)[C@H]1CO` was tested. Which relative growth did it give?
A: inactive: 1.01

Q: For `Cc1noc(C)c1NC(=O)N(C)C[C@@H]1OCCCC[C@@H](C)Oc2ccc(NC(=O)CCC(F)(F)F)cc2C(=O)N([C@@H](C)CO)C[C@H]1C`, which relative growth is on record?
A: inactive: 1

Q: For `C[C@@H]1CCCCO[C@@H](CN(C)S(=O)(=O)c2cn(C)cn2)[C@@H](C)CN([C@@H](C)CO)C(=O)c2cc(N(C)C)ccc2O1`, which relative growth is on record?
A: inactive: 0.959

Q: How did the relative growth turn out when `C[C@H](CO)N1C[C@H](C)[C@@H](CN(C)S(=O)(=O)c2ccccc2)OCCCC[C@H](C)Oc2ccc(NC(=O)Nc3ccc4c(c3)OCO4)cc2C1=O` was run?
A: inactive: 1.01

Q: `Cc1noc(C)c1NC(=O)Nc1ccc2c(c1)CC(=O)N([C@H](C)CO)C[C@@H](C)[C@@H](CN(C)S(=O)(=O)c1c(C)noc1C)O2` was tested. Which relative growth did it give?
A: inactive: 0.979

Q: `C[C@@H]1CN([C@H](C)CO)C(=O)c2cccc(NS(=O)(=O)c3ccccc3)c2O[C@H]1CN(C)C(=O)Nc1cccc2ccccc12` was tested. Which relative growth did it give?
A: inactive: 0.987

Q: For `Nc1ccccc1C(=O)C[C@H](N)C(=O)O`, which relative growth is on record?
A: inactive: 0.992

Q: Which relative growth does the source give for `COCCc1ccc(OCC(O)CNC(C)C)cc1.O=C(O)C(O)C(O)C(=O)O` (stereo not drawn) here?
A: inactive: 1.17

Q: Which relative growth does the source give for `C1COC[C@H](c2nn[nH]n2)N1` here?
A: inactive: 1

Q: Which relative growth does the source give for `Cc1noc(C)c1S(=O)(=O)N(C)C[C@H]1Oc2ccc(N(C)C)cc2CC(=O)N([C@H](C)CO)C[C@@H]1C` here?
A: inactive: 1.02

Q: Which relative growth does the source give for `Cc1noc(C)c1S(=O)(=O)Nc1cccc2c1O[C@H](CN(C)S(=O)(=O)c1cn(C)cn1)[C@H](C)CN([C@H](C)CO)C2=O` here?
A: inactive: 1

Q: Which relative growth does the source give for `Cc1noc(C)c1S(=O)(=O)N(C)C[C@H]1Oc2ccc(NC(=O)Cc3ccccc3)cc2CC(=O)N([C@H](C)CO)C[C@H]1C` here?
A: inactive: 1.01

Q: `COc1cc(C)nc2nc(S(C)(=O)=O)nn12` was tested. Which relative growth did it give?
A: inactive: 1.02

Q: With `CO[C@@]1(NC(=O)[C@@H](C(=O)O)c2ccc(O)cc2)C(=O)N2C(C(=O)O)=C(CSc3nnnn3C)CO[C@@H]21` as the compound, how does the relative growth read?
A: inactive: 0.983

Q: With `C[C@H]1CN([C@@H](C)CO)C(=O)c2cc(NC(=O)Nc3ccccc3)ccc2O[C@@H]1CN(C)S(=O)(=O)c1cn(C)cn1` as the compound, how does the relative growth read?
A: inactive: 1

Q: Which relative growth does the source give for `CC(=O)[C@]1(N)Cc2c(O)c3c(c(O)c2[C@@H](O[C@H]2C[C@H](O)[C@H](O)CO2)C1)C(=O)c1ccccc1C3=O` here?
A: inactive: 0.983

Q: With `Cc1ccc(S(=O)(=O)N(C)C[C@@H]2Oc3c(NS(=O)(=O)c4cn(C)cn4)cccc3C(=O)N([C@H](C)CO)C[C@@H]2C)cc1` as the compound, how does the relative growth read?
A: inactive: 1.01

Q: For `C/C=C/C[C@@H](C)[C@@H](O)[C@H]1C(=O)N[C@@H](CC)C(=O)N(C)CC(=O)N(C)[C@@H]([C@@H](C)CC)C(=O)N[C@@H](C(C)C)C(=O)N(C)[C@@H](CC(C)C)C(=O)N[C@@H](C)C(=O)N[C@H](C)C(=O)N(C)[C@@H](CC(C)C)C(=O)N(C)[C@@H](CC(C)C)C(=O)N(C)[C@@H](C(C)C)C(=O)N1C`, which relative growth is on record?
A: inactive: 1.04

Q: How did the relative growth turn out when `C[C@H]1CN([C@@H](C)CO)C(=O)c2cc(NS(=O)(=O)c3ccccc3)ccc2O[C@H]1CN(C)Cc1ccc(-c2ccccc2)cc1` was run?
A: inactive: 0.959

Q: Which relative growth does the source give for `Cc1noc(C)c1S(=O)(=O)Nc1ccc2c(c1)C(=O)N([C@H](C)CO)C[C@@H](C)[C@@H](CN(C)S(C)(=O)=O)O2` here?
A: inactive: 1.05

Q: Which relative growth does the source give for `C[C@@H]1CCCCO[C@H](CN(C)Cc2ccccc2)[C@H](C)CN([C@@H](C)CO)C(=O)c2cc(NC(=O)Nc3ccc(F)cc3)ccc2O1` here?
A: inactive: 1.04

Q: For `COc1ccc(CN(C)C[C@@H]2OCCCC[C@H](C)Oc3ccc(NS(=O)(=O)c4ccccc4)cc3C(=O)N([C@H](C)CO)C[C@H]2C)cc1`, which relative growth is on record?
A: inactive: 1.01

Q: How did the relative growth turn out when `Cn1cnc(S(=O)(=O)N2C[C@H](O)COC[C@H]3O[C@H](CC(=O)NCc4ccc(F)cc4)CC[C@@H]32)c1` was run?
A: inactive: 0.985

Q: `C[C@@H]1CN([C@H](C)CO)C(=O)Cc2cc(NS(=O)(=O)c3ccc(Cl)cc3)ccc2O[C@H]1CN(C)S(C)(=O)=O` was tested. Which relative growth did it give?
A: inactive: 1

Q: `CCC(=C/[C@H](C)C/C=C/C(C)=C/[C@@H](C)C(=O)[C@@H](C)[C@H](O)[C@@H](C)C/C(C)=C/C(=O)O)/C=C/[C@@H]1OC(=O)C=C[C@@H]1C` was tested. Which relative growth did it give?
A: inactive: 0.948

Q: `O=C(C[C@@H]1C[C@@H]2c3cc(NC(=O)c4ccc5c(c4)OCO5)ccc3O[C@@H]2[C@H](CO)O1)NCc1ccccn1` was tested. Which relative growth did it give?
A: inactive: 1

Q: With `COc1ccc(NC(=O)N(C)C[C@@H]2Oc3cc(C#CCN(C)C)ccc3S(=O)(=O)N([C@H](C)CO)C[C@@H]2C)cc1` as the compound, how does the relative growth read?
A: inactive: 0.987

Source: the supplement of paper PMC9446081
